In ChEMBL document CHEMBL1156829:
Whole data set: some 5,400 compounds, median “IFI” near 2, cut for the highest 2% near 22. Some of the results follow.

Experiment: NOVARTIS: Inhibition Frequency Index (IFI) - the number of HTS assays where a compound showed > 50% inhibition/induction, expressed as a percentage of the number of assays in which the compound was tested.
Format: functional

Row | Compound | IFI [%]
1 | Cn1nc(C(F)(F)F)c(C(=O)Nc2ccc(Cl)cc2)c1Sc1ccc(Cl)cc1 | 4.11
2 | COc1ccc(C(NC(=O)c2cccc(OC)c2)c2cc(Cl)c3cccnc3c2O)cc1 (stereo unspecified) | 0
3 | O=C1CN(C(=O)c2cc([N+](=O)[O-])c(N3CCCCC3)c([N+](=O)[O-])c2N2CCCCC2)c2ccccc2N1 | 0
4 | CC(=O)Nc1ccc(NC(=O)C(C)(C)CCl)cc1 | 2.53
5 | COC(=O)c1sc2nc(CN3CCCC(C)C3)ccc2c1NC(=O)c1ccc(C)s1 (stereo unspecified) | 0.87
6 | N=C1NC(=O)/C(=C/C=C/c2ccc([N+](=O)[O-])o2)S1 | 9.68
7 | COc1cccc(CN2CCC(O)(c3ccc4oc(C(=O)Nc5ccc(Cl)cc5)cc4c3)CC2)c1 | 3.81
8 | Fc1ccc(-c2c[n+](Cc3ccc(Cl)cc3Cl)c3n2CCC3)cc1 | 4.76
9 | CCOC(=O)N1CCN(c2ccc(C(F)(F)F)cn2)CC1 | 0
10 | CC(=O)Nc1ccc(C(C)=NNc2nc(Nc3cc(C)ccc3C)nc(N3CCOCC3)n2)cc1 | 0
11 | N=c1c2c(n(CCc3ccccc3)c3c1CCC3)CCCC2 | 8.2
12 | Cc1oc2c(c1C(=O)NC1CCS(=O)(=O)C1)C(=O)c1ccccc1C2=O (stereo unspecified) | 29.7
13 | CCOC(=O)c1ccc(NC(=O)c2cc3ccccn3n2)cc1 | 7.69
14 | O=C(Nc1ccccc1O)c1ccc(Cl)cc1 | 5.13
15 | O=C(Nc1ccccc1Cl)NC1(C(=O)NCC2CCCO2)CCCCC1 (stereo unspecified) | 0
16 | COc1cc(OC)nc(C(Sc2ccc(NC(=O)c3cccs3)cc2)c2ccccc2)n1 (stereo unspecified) | 0.787
17 | c1ccc2c(NCCc3c[nH]c4ccccc34)c3ccccc3nc2c1 | 5.88
18 | Brc1ccc(Nc2nc(NCC3CCCO3)c3ccccc3n2)cc1 (stereo unspecified) | 5.56
19 | Cc1ccccc1NC(=O)N(CCCNC(=O)CCl)c1ccccc1 | 2.78
20 | CCOC(=O)C1=C(C)NC2=C(C(=O)CC(c3ccc(OC)cc3)C2)C1c1ccccc1F (stereo unspecified) | 3.49
21 | CCOC(=O)c1nnn(-c2nonc2-n2cccc2)c1CN1CCCCC1 | 0

Row | Compound | IFI [%]
22 | CCN(CC)CCN(Cc1cc2cc(OC)ccc2[nH]c1=O)C(=S)Nc1ccc(F)cc1 | 3.67
23 | N#Cc1c2c(c(N3CCN(Cc4ccc(F)cc4)CC3)n3c1nc1ccccc13)CCC2 | 0
24 | COC(=O)C1=C(C)NC2=C(C(=O)CC(C)(C)C2)C1c1ccc(C)o1 (stereo unspecified) | 0.862
25 | COc1cccc(NC(=O)N(Cc2ccccc2)C(C)c2nc3ccccc3c(=O)n2-c2cc(C)ccc2OC)c1 (stereo unspecified) | 3.19
26 | CC(C)CNc1nc(NCCCn2ccnc2)ncc1C(=O)NCCc1ccccc1 | 1.91
27 | COc1cccc(CNC(=O)Cn2ncc3c(=O)oc4ccc(C)cc4c32)c1 | 0
28 | O=C(NCCN1CCCCC1)c1ccc(OC2CCN(CC3CCCCC3)CC2)c(Cl)c1 | 8.57
29 | COC(F)(C(=O)Nc1c(C)n(C)n(-c2ccccc2)c1=O)C(F)(F)F (stereo unspecified) | 0
30 | COC(=O)c1cccc(NC(=O)/C(=C\c2cccc([N+](=O)[O-])c2)NC(=O)c2ccccc2OC)c1 | 0
31 | CCOc1ccc2nc(C)cc(Nc3ccc(C)c(Cl)c3)c2c1 | 7.84
32 | COc1ccc(C2Nc3ccc4ccccc4c3C3=C2C(=O)CC(C)(C)C3)cc1Br (stereo unspecified) | 0
33 | Cc1ccc(C2CC(C(F)(F)F)n3ncc(C(=O)Nc4ccc(OC(F)(F)F)cc4)c3N2)cc1 (stereo unspecified) | 0
34 | Nc1ccc(-c2nc3ccc(-c4nc5ccc(N)cc5[nH]4)cc3[nH]2)cc1 | 2.56
35 | COc1ccc(NC(=O)CN2CCN(S(=O)(=O)c3cccc([N+](=O)[O-])c3)CC2)c(OC)c1 | 0
36 | CCCN(CCC)CCCNc1ccc(C(=O)Nc2cccc(OC)c2)cc1[N+](=O)[O-] | 0
37 | CCOc1ccc(NC(=O)N(CCC(C)C)C(C)c2nc3ccccc3c(=O)n2-c2cccc(Cl)c2C)cc1 (stereo unspecified) | 1.06
38 | c1ccc2[nH]c(Sc3ncnc4sc5c(c34)CCC5)nc2c1 | 1.51
39 | COC(=O)[C@@H]1C[C@H](NC(=O)c2ccc(OC)cc2OC)CN1Cc1cccc2ccccc12 | 1.85
40 | CCCOC(=O)C1=C(C)NC2=C(C(=O)CC(c3ccccc3)C2)C1c1ccc(Cl)cc1Cl (stereo unspecified) | 3.66
41 | OC(CN1CCN(CC(O)Cn2c3ccccc3c3cc(Br)ccc32)CC1)Cn1c2ccccc2c2ccccc21 (stereo unspecified) | 7.14
42 | CCOC(=O)N1CCC(N2C(=O)c3ccccc3C2Nc2ccc(OCC)cc2)CC1 (stereo unspecified) | 0

Row | Compound | IFI [%]
43 | COc1cc2c(cc1OC)C1=NNC(=O)C1=NC(C)(C)C2 | 7.14
44 | CCOC(=O)C1=C(CC)NC2=C(C(=O)CCC2)C1c1ccc(OC)c(Br)c1 (stereo unspecified) | 3.49
45 | CC(C)(C)C1=CC(=C2C=C(C(C)(C)C)SC(C(C)(C)C)=C2)C=C(C(C)(C)C)S1 | 3.66
46 | Cc1ccccc1Cn1cc(NC(=O)c2cc(-c3cccs3)on2)cn1 | 0
47 | FC(F)(F)c1cnc(Sc2nnc(-c3ccncc3)o2)c(Cl)c1 | 10
48 | COc1ccc2[nH]c(SCC(=O)Nc3cccc(NC(=O)CSc4nc5cc(OC)ccc5[nH]4)n3)nc2c1 | 13.1
49 | Cc1ccc(C(OCC(C)(C)C[N+](C)(C)C)c2ccccc2)cc1 (stereo unspecified) | 2.22
50 | CCOC(=O)c1[nH]c2ccc(OC)cc2c1N=NN(C)C | 6.3
51 | COCCNC(=O)[C@@H]1C[C@@H](Sc2nc3ccccc3[nH]2)CN1Cc1ccc2ccccc2c1 | 8.82
52 | CC1=C(C(=O)Nc2ccc(C)cc2C)C(c2cc(Br)ccc2F)n2ncc(C(=O)Nc3ccc(C)cc3)c2N1 (stereo unspecified) | 0
53 | COC(=O)C1=C(C)NC2=C(C(=O)CC(c3ccccc3)C2)C1c1ccc(Cl)cc1 (stereo unspecified) | 2.3
54 | CCC(C(=O)Oc1ccccc1-c1nc2cc(C)ccn2c1NC(C)(C)CC(C)(C)C)c1ccccc1 (stereo unspecified) | 3.74
55 | O=C(NNS(=O)(=O)c1ccccc1[N+](=O)[O-])c1ccccc1 | 0
56 | C/C=C/c1n(C)c2ccccc2[n+]1C | 4.35
57 | COC(OC)C(C)=NNC(N)=S | 16.8
58 | Cc1noc(C)c1S(=O)(=O)N(Cc1ccccc1)CC(O)CN1CCC(NC(=O)c2ccc(F)cc2)C1 (stereo unspecified) | 0.971
59 | CCC(CC)CN1CCC(O)(c2ccc3oc(C(=O)Nc4ccc(OC)c(OC)c4)cc3c2)CC1 | 3.45
60 | CCCCC(CC)C(=O)N1CCN(C(C)c2nc3ccc(Cl)cc3c(=O)n2C)CC1 (stereo unspecified) | 0
61 | COc1ccccc1N1CCN([C@@H]2CCN(Cc3cccnc3)C[C@@H]2CCC(=O)N2CCCC2)CC1 | 2.68
